Article PMC4336329 (PLoS ONE, 2015)
About 2,200 (0.71%) of roughly 310,000 compounds showed an effect of 50% or more. Effects have a minus sign here. Some of the results follow.

These molecules were tested against human ether-à-go-go-related gene (hERG) potassium channel (human, UniProt Q12809) (assay: primary screen, population patch clamp on CHO cells stably expressing hERG).
human ether-à-go-go-related gene (hERG) potassium channel, sequence (Q12809 whole entry, looked up): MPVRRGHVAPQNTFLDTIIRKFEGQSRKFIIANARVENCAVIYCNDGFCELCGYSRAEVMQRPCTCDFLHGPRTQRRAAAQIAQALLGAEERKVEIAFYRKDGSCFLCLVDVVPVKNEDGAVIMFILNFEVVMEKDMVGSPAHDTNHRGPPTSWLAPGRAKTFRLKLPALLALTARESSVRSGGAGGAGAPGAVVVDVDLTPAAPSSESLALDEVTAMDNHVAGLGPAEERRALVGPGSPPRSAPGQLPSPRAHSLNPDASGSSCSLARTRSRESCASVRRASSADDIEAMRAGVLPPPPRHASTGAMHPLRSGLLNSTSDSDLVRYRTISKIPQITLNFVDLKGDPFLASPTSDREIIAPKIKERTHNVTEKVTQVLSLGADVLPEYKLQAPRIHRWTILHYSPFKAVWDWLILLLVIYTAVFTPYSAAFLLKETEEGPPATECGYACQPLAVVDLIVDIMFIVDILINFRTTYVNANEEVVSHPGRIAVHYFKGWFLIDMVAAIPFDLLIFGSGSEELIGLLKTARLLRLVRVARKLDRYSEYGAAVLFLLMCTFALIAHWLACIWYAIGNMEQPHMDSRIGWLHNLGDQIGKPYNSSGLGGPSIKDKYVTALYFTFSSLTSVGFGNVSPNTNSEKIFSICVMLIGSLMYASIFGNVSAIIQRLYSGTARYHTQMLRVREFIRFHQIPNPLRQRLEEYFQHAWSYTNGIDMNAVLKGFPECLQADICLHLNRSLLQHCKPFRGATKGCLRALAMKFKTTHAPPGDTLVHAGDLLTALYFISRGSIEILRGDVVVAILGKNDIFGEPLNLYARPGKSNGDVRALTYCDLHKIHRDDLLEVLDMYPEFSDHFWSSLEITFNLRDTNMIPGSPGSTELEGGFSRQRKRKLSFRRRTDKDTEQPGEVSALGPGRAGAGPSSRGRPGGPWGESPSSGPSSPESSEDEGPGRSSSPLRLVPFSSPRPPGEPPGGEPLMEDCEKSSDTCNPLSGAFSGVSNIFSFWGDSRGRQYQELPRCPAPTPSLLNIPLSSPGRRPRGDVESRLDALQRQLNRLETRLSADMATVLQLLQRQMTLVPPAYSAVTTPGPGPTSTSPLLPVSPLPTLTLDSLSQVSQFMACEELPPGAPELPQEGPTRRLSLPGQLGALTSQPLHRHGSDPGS

| Structure (SMILES) | hERG current change (%, negative = inhibition) at 1uM [%] |
| --- | --- |
| CC(=O)c1ccc(OCc2cc(C(=O)NC(C)CCn3cccn3)no2)cc1 (stereo not shown) | 3.44 |
| CCCc1nnc(NC(=O)c2ccc([N+](=O)[O-])cc2)s1 | 16.9 |
| CCc1ccc(S(=O)(=O)NC(=S)NC2CCCCC2)cc1 | 11 |
| CC1(C)CC(=O)C=C(NC2CC(C)(C)NC(C)(C)C2)C1 | 14.7 |
| CCOc1ccc(-c2nn[nH]n2)cc1 | -6 |
| CCOC(=O)c1c(NC(=O)c2ccccc2C(=O)O)sc2c1CCCC2 | 16.3 |
| CCCc1cc(NCC2CCCO2)n2c(nc3ccccc32)c1C#N (stereo not shown) | -8.59 |
| COc1ccccc1NCCC(=O)OCC(=O)NC1CC1 | -0.487 |
| COc1ccccc1C(=O)NN1C(=O)C2C3C=CC(O3)C2C1=O (stereo not shown) | 16.5 |
| COc1ccc(NC(=O)c2cc(F)cc(F)c2)cc1Cl | 9.92 |
| S=C(Nc1ccccc1)Nc1ccc(Br)cc1 | 14.5 |
| COc1ccc(-c2cc3ncc(C(C)=O)c(C)n3n2)cc1 | 19.5 |
| Clc1ccc(-c2ncc3ccccn23)c(Cl)c1 | 8.92 |
| CC(OC(=O)CCC(=O)c1ccc(Cl)s1)C(=O)NC1(C#N)CCCCC1 (stereo not shown) | -7.9 |
| COc1c(C)cc(S(=O)(=O)NCc2ccccn2)c(C)c1C | 9.43 |
| COc1ccccc1Nc1nc(Cl)nc(Nc2ccccc2OC)n1 | 1.48 |
| O=C(Cc1ccccc1)NN1C(=O)C2C3C=CC(C4CC34)C2C1=O (stereo not shown) | 6.62 |
| CC(Nc1ncnc2nc[nH]c12)c1ccccc1 (stereo not shown) | 12 |
| CC(C)(C)c1cc(CCC(=O)NNC(=O)c2ccncc2)cc(C(C)(C)C)c1O | 4.04 |
| CC(=O)Nc1ccc(S(=O)(=O)N2CCCC2C(=O)Nc2ccc3c(c2)OCCO3)cc1 (stereo not shown) | 13.6 |
| O=C(CCNC(=O)c1ccccc1Cl)Nc1nc(-c2ccc(F)cc2)cs1 | -1.9 |
| COCC(=O)Oc1c(Sc2ccccc2[N+](=O)[O-])c(C)nn1C(C)(C)C | 3.05 |
| Cn1cnnc1SCC(=O)NCCC(c1ccccc1)c1ccccc1 | 11.6 |

| Structure (SMILES) | hERG current change (%, negative = inhibition) at 1uM [%] |
| --- | --- |
| O=C(CSc1nnnn1C1CCCC1)Nc1ccccc1N1CCOCC1 | 18.1 |
| Cc1c[n+]([O-])ccc1Oc1ccc([N+](=O)[O-])cc1 | 10.9 |
| CCN(CC)CCOc1ccc2nc(N(C)C)sc2c1.Cl | 13.7 |
| O=c1nc2ccccc2c2n1CC(CN1CCN(c3ccc(F)cc3)CC1)N2 (stereo not shown) | -65.6 |
| Cl.OCCN(CCO)CC(O)COCCC12CC3CC(CC(C3)C1)C2 (stereo not shown) | 11.7 |
| Cc1cc(S(=O)(=O)Nc2cccc(Cl)c2)c(C)s1 | 12.1 |
| CC(C)(C)c1ccc(S(=O)(=O)NNC(=O)C2CCN(Cc3cccc(F)c3)CC2)cc1 | 12.8 |
| CCOC(=O)c1oc2ccccc2c1COC(=O)CNC(=O)c1ccccc1 | 22.8 |
| CCOC(=O)Cc1nnc(NC(=O)COc2ccc(OC)cc2)s1 | -4.33 |
| Cc1[nH]c2ccccc2c1C(=O)C(=O)N1CCN(C)CC1 | 17.2 |
| O=C(CN1CCCCC1)Nc1ccc(S(=O)(=O)N2CCCCCC2)cc1 | 10.3 |
| CCOC(=O)c1c(C)[nH]c(C)c1S(=O)(=O)NCc1ccccc1OCC | 21.2 |
| Cc1cn2c(-c3cccnc3)nnc2s1 | -10.1 |
| COc1ccc(N2CCN(C(=O)COC(=O)c3oc4ccccc4c3C)CC2)cc1 | 3.04 |
| COc1cc(C(=O)NC(=S)Nc2ccccc2N2CCCC2)cc(OC)c1OC | 17.4 |
| COc1ccc(OCc2cccc(C(=O)N3CCCC3)c2)cc1 | 8.09 |
| CCOC(=O)[C@H]1[C@H]2COc3ccc(Cl)cc3[C@@H]2N2C(=O)c3ccc(C)cc3NC(=O)[C@@]12C | 14.7 |
| C=CCNC(=S)Nc1ccc2nc(C)oc2c1 | 13.8 |
| COc1ccc(C2CC(c3cccs3)=NN2C(=O)CCC(=O)O)cc1 (stereo not shown) | 12.1 |
| CC12C=CC3(O1)C(C(=O)N(c1ccccc1)C3C(=O)NC1CCCC1)C2C(N)=O (stereo not shown) | -5.45 |
| CC[n+]1c(/C=C/c2ccc(OC)c(OC)c2)ccc2ccccc21.[I-] | 13.8 |
| CCOC(=O)C1=C(C)N=C2SC(CC)C(=O)N2C1c1cccc(F)c1 (stereo not shown) | -18.9 |
| Cn1c(O)c(C=Nc2ccc3c(c2)CCC3)c(=O)n(C)c1=O | 4.24 |

| Structure (SMILES) | hERG current change (%, negative = inhibition) at 1uM [%] |
| --- | --- |
| C/C(=N/Nc1nc(C)cc(-c2ccccc2)n1)c1ccco1 | 9.96 |
| O=C(Cn1nnc(-c2cccs2)n1)N1CCOCC1 | 1.2 |
| O=C(CCSc1ccccc1)Nc1ccc(S(=O)(=O)N2CCOCC2)cc1 | 4.72 |
| Cc1ccc(C(=O)N2N=C(c3ccc(Br)cc3)CC2c2ccccc2O)cc1 (stereo not shown) | 9.71 |
| Cc1cc(NC(=O)Cc2ccccc2)ccc1NC(=O)c1cccs1 | 5.61 |
| O=C(NC(=S)Nc1ccc(CN2CCOCC2)cc1)c1ccc(-c2ccc(Br)cc2)o1 | 16.1 |
| Cn1cc(-c2ccno2)c(C(=O)O)n1 | 13.3 |
| O=c1n(Cc2ccccc2)c2cc(Cl)cnc2n1Cc1ccccc1 | 3.08 |
| CC(Oc1ccc(C(=O)c2ccccc2)cc1)C(=O)N1CCOCC1 (stereo not shown) | -5.31 |
| CCOc1ncccc1C(=O)NCC1COc2ccccc2O1 (stereo not shown) | 5.36 |
| COc1ccc(-n2nc(C(=O)O)c3ccccc3c2=O)cc1 | 2.83 |
| FC(F)Oc1ccc(NC(=S)NNc2ccnc3cc(Cl)ccc23)cc1 | 15.6 |
| COC(=O)C1=C(C)N(C(C)C)C(=O)C1(NC(=O)C1CCCCC1)C(F)(F)F (stereo not shown) | 1.89 |
| Cc1ccc(NC(=S)/C(=C(\[O-])c2ccc(Cl)s2)[n+]2cccc(CO)c2)cc1C | 4.6 |
| COC(=O)c1sccc1NC(=S)N1CC(C)CC(C)C1 (stereo not shown) | 13.4 |
| COCCCn1c(C)cc(C(=O)COC(=O)CCc2nc3ccccc3c(=O)[nH]2)c1C | 13 |
| Cc1nn(CC(=O)NCCCN2CCCCC2C)c(=O)c2cccn12 (stereo not shown) | 19.2 |
| O=C(Nc1cccc([N+](=O)[O-])c1)c1ccc2snnc2c1 | -0.532 |
| Cc1ccc2nc(-c3ccccc3)cc(C(=O)N3CCN(S(=O)(=O)c4c(C)noc4C)CC3)c2c1 | -0.0323 |
| CCN(/C=N/S(=O)(=O)c1ccc(Cl)cc1)CC | -3.63 |
| COc1ccc(OCC(O)CNC(=O)Nc2ccc(Cl)cc2)cc1 (stereo not shown) | 8.21 |
| CCN1CCN(C(=O)CNC(=O)c2nn(-c3ccc(OC)cc3)c(=O)c3ccccc23)CC1 | 16.6 |
| CCOc1cc2[nH]c(=O)n(Cc3ccc(C(=O)NCCOC)cc3)c(=O)c2cc1OCC | 4.96 |

| Structure (SMILES) | hERG current change (%, negative = inhibition) at 1uM [%] |
| --- | --- |
| Cc1ccc(C(=O)NN2C(=O)CSC2=S)cc1 | 3.57 |
| Clc1cccc(C2CCN(Cc3nc(CC4CC4)no3)C2)c1 (stereo not shown) | -2.02 |
| CCN(C(=O)CSc1nnc(SC)s1)c1c(N)n(Cc2ccccc2)c(=O)[nH]c1=O | 13.8 |
| CCOC(=O)C1=C(C)N(c2nonc2NC(C)=O)C(N)=C(C#N)C1c1ccccc1F (stereo not shown) | 5.92 |
| Cc1noc(C)c1CSc1nc2sc3c(c2c(=O)n1C)CCCC3 | 9.65 |
| O=C1CCCC2=C1C(c1ccncc1)Nc1ccccc1N2 (stereo not shown) | 10.7 |
| Cc1cc(C)c2c(-n3cccc3)c(NC(=O)OCc3ccccc3)sc2n1 | 0.703 |
| CCc1cccc(C)c1NC(=O)COC(=O)C(NS(=O)(=O)c1ccc(Cl)cc1)C(C)O (stereo not shown) | 7.01 |
| Cc1csc(NC(=O)c2ccncc2)n1 | 11.7 |
| O=C(CCN1C(=O)C2CC=CCC2C1=O)Nc1cccc(Cl)c1 (stereo not shown) | 6.95 |
| CCCCNC(=O)C1c2ccccc2C(=O)N(c2ccc(OC)cc2)C1c1ccc(OC)cc1 (stereo not shown) | 14.2 |
| CC(=O)c1ccc(NC(=O)Cn2c(=O)oc3ccccc32)cc1 | 18.5 |
| COC(=O)c1ccc(NC(=O)c2cc3c(CO)cnc(C)c3oc2=Nc2cccc(C(N)=O)c2)cc1 | 14.5 |
| O=C(CCC(=O)NNC(=O)Nc1cccc(Cl)c1)NCc1ccccc1 | 10.1 |
| FC(F)(F)c1ccc(-c2n[nH]c(=S)o2)nc1 | 9.8 |
| COc1ccc(CN(C)C(=O)c2ccc(COc3ccccc3)cc2)c(OC)c1 | 11.3 |
| Cc1cccc(-c2nnc(-c3ccccc3)o2)c1 | 10.1 |
| CC(=O)N1CCN(C(=O)CCNS(=O)(=O)c2ccc(Br)cc2)CC1 | 11.5 |
| COc1cccc(N=c2oc3c(C)ncc(CO)c3cc2C(N)=O)c1 | 2.52 |
| O=C(NC1CCCCC1)C(c1c(F)cccc1Cl)N(C(=O)c1csnn1)C1CC1 (stereo not shown) | 18.4 |
| CC(NC(=O)CN1CCN(Cc2cccc(F)c2)CC1)c1ccccc1 (stereo not shown) | 14.9 |
| COc1ccc(OCC(=O)N(Cc2sccc2C)C2CCS(=O)(=O)C2)cc1 (stereo not shown) | -11.8 |
